Drawing on the supplement of paper PMC10126150, this text covers switch fluorescence ratio for 120 sequences.

Values marked as one replicate rest on one cluster of the flow cell; about a third of the high ones do not repeat.

This data set has as its system ATP. Nature of the data set: switch fluorescence ratio, 500 uM ATP over buffer (Cy3 cluster intensity, sum of 5 cycles each) (fold (ratio)); higher = stronger signal-on switching upon ATP binding; sequences stand for … in TCGTCGGCAGCGTCAGATGTGTATAAGAGACAGTTTTTTTTTTTTTTTTTTTTTTTTT…TC. As to conditions: aptamer strand: ATP DNA aptamer (quencher-CACCTGGGGGAGTATTGCGGAGGAAGG + anchor), 100 nM annealed; ATP concentration: 500 uM; one replicate. Summed up:
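Imaging in selection buffer was followed by imaging after 15 min with 500 uM ATP at 22 °C, for Cy3-labelled switching-strand clusters annealed to 100 nM quencher-labelled ATP aptamer on a modified Illumina MiSeq flow-cell. Five of these buffer/ATP cycles ran, separated by NaOH stripping and re-annealing. The fluorescence ratio per cluster is summed target-cycle over summed buffer-cycle Cy3 intensity, averaged per switch-domain sequence; clusters outside 100-1000 RFU were removed.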
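Also: ATP exposure 15 min at 22 °C before imaging.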

Consider TATTATGTTT, for which the switch fluorescence ratio amounted to 0.972.

For TTATGTACGG, the switch fluorescence ratio worked out at 1.02.

In the case of TTCGCCCTCG, the switch fluorescence ratio came to 1.02.

TGGATAAAAT: the switch fluorescence ratio was determined as 1.08.

Consider ATAGGTCGGA, for which the switch fluorescence ratio stood at 0.998.

For the sequence TTAAGCTTTC, the switch fluorescence ratio worked out at 1.42.

With TCTTAACTCG, the switch fluorescence ratio amounted to 0.985.

Take CGACGGTATG: the switch fluorescence ratio is 0.988.

In the case of ACGGACTCAA, the switch fluorescence ratio stood at 1.41.

Regarding TATCCAGAAG, the switch fluorescence ratio was 1.

As for GAGGGCCGCT, the switch fluorescence ratio came to 1.06.

Consider ACGAATGCTC, for which the switch fluorescence ratio came out at 1.47.

For the sequence TATTATTTTA, the switch fluorescence ratio was found to be 1.

Take GGCGGGATAA: the switch fluorescence ratio was 1.07.

In the case of ACACAGCTTG, the switch fluorescence ratio was 0.954.

On to TTGAGATTC, for which the switch fluorescence ratio turned out to be 0.976.

Take AAATGCATTA: the switch fluorescence ratio worked out at 1.01.

GGCCGGACGC: the switch fluorescence ratio was 0.997.

In the case of CAGGTGTCGG, the switch fluorescence ratio turned out to be 1.04.

As for CGTACCTTGG, the switch fluorescence ratio came to 1.02.

Take AACAGCGAAT: the switch fluorescence ratio is 1.02.

ACACACCGTG: the switch fluorescence ratio is 1.11.

On to TTACTGATT, for which the switch fluorescence ratio came out at 1.01.

As for TATGGCTGAC, the switch fluorescence ratio amounted to 1.16.

With GGCCCTGATC, the switch fluorescence ratio was determined as 1.05.

Take CGTGTGAGAT: the switch fluorescence ratio is 1.01.

As to AGCTGGAGCG, the switch fluorescence ratio came out at 1.03.

CTTGTTGCTC: the switch fluorescence ratio was found to be 1.02.

As to GGGTCGCATG, the switch fluorescence ratio amounted to 1.

Take TTTCAAGCGA: the switch fluorescence ratio was found to be 1.09.

On to TACGAGAAGG, for which the switch fluorescence ratio was 1.03.

Consider TTCCGCAGTG, for which the switch fluorescence ratio worked out at 3.38.

For TAGTTGTCTA, the switch fluorescence ratio amounted to 0.954.

Turning to CACTCGATTG, the switch fluorescence ratio turned out to be 1.

ATACGTAGGA: the switch fluorescence ratio was determined as 0.997.

As for AGTTTGGATG, the switch fluorescence ratio was found to be 0.958.

As for GTCAACGTGG, the switch fluorescence ratio came to 0.979.

Regarding TGGATTGGTC, the switch fluorescence ratio is 0.994.

On to AGAAGGCCAC, for which the switch fluorescence ratio amounted to 0.992.

As for GACATTGTCG, the switch fluorescence ratio turned out to be 1.01.

For the sequence CACTCGACTT, the switch fluorescence ratio is 1.02.

Take CTAAATGTTC: the switch fluorescence ratio worked out at 1.04.

On to TAATATAAAG, for which the switch fluorescence ratio came to 0.978.

For TTTGCCTGTT, the switch fluorescence ratio came to 1.11.

In the case of GCACGGCTTT, the switch fluorescence ratio was 1.1.

With TTCAGGGGG, the switch fluorescence ratio amounted to 1.04.

Consider AGAACTGGT, for which the switch fluorescence ratio is 0.946.

Take TGCCCCATGC: the switch fluorescence ratio amounted to 1.24.

Take CCCCCCTGGG: the switch fluorescence ratio worked out at 5.46.

For the sequence GAAGGATAAC, the switch fluorescence ratio amounted to 1.06.

Consider TGTGTGTGT, for which the switch fluorescence ratio was 1.

As for CAGAGTTACG, the switch fluorescence ratio worked out at 1.01.

In the case of CAGTGGTGCC, the switch fluorescence ratio was 0.98.

For GCAAGATTAG, the switch fluorescence ratio was determined as 1.

Turning to GAAAACTTGA, the switch fluorescence ratio was 1.02.

On to TAACCTGGGG, for which the switch fluorescence ratio is 1.

As to AAACTTAGTT, the switch fluorescence ratio came out at 0.989.

On to ATTAACAGCG, for which the switch fluorescence ratio was 1.03.

As for GCCTCGCTCG, the switch fluorescence ratio was 0.993.

Regarding CGTAAAGAGC, the switch fluorescence ratio came out at 0.985.

Take CCCCACGGGC: the switch fluorescence ratio came out at 1.35.

TCATTAAATT: the switch fluorescence ratio worked out at 0.998.

In the case of TAAGCATTGT, the switch fluorescence ratio was 1.01.

Turning to TTTATAGAGG, the switch fluorescence ratio was 0.923.

As for TCGTACACTT, the switch fluorescence ratio was found to be 1.

AGTAAATTAA: the switch fluorescence ratio amounted to 0.962.

On to GCTCTGGCAC, for which the switch fluorescence ratio came out at 1.11.

Regarding TTAGCAAGGT, the switch fluorescence ratio is 1.22.

With AGGAAGGGCT, the switch fluorescence ratio came to 0.93.

For the sequence GATACGCGAA, the switch fluorescence ratio amounted to 1.

Turning to GGTACATCCG, the switch fluorescence ratio was determined as 1.03.

In the case of CAGCTGGTCC, the switch fluorescence ratio turned out to be 1.02.

Regarding GTGCAGAAAT, the switch fluorescence ratio amounted to 1.

As to GTTGCCTTGG, the switch fluorescence ratio is 1.05.

For the sequence GAGACTGGTG, the switch fluorescence ratio was determined as 1.01.

As for AAATGACTTG, the switch fluorescence ratio is 0.949.

Take TTGTCAAGTT: the switch fluorescence ratio turned out to be 0.98.

CTCTGGGATT: the switch fluorescence ratio amounted to 0.971.

In the case of AGACGTGCTC, the switch fluorescence ratio is 1.

Take GTATGTATAC: the switch fluorescence ratio was 1.08.

In the case of ACCCATACGT, the switch fluorescence ratio was found to be 1.24.

For the sequence CCGTACATGG, the switch fluorescence ratio was 2.33.

As for TAGCGAGCGG, the switch fluorescence ratio was 1.03.

Take TTCGAGAACT: the switch fluorescence ratio stood at 0.953.

As to GACGTAAGTC, the switch fluorescence ratio worked out at 1.01.

Regarding GGGACGGC, the switch fluorescence ratio is 1.03.

For CTCTGGGGGT, the switch fluorescence ratio came to 0.977.

Take TTGCACAAGA: the switch fluorescence ratio was found to be 0.963.

Consider CCAAGGGTCA, for which the switch fluorescence ratio turned out to be 1.03.

Regarding AACGTTAGAT, the switch fluorescence ratio was 1.06.

In the case of ACCACACGG, the switch fluorescence ratio worked out at 1.26.

For GAAAAAGAGT, the switch fluorescence ratio came to 0.97.

For TGACATTATG, the switch fluorescence ratio was 1.03.

In the case of AAGTGTATAG, the switch fluorescence ratio was determined as 0.959.

Consider TTCGTACCAG, for which the switch fluorescence ratio was 0.98.

With TGCAGAAATG, the switch fluorescence ratio amounted to 1.09.

Consider GGTTGTATAC, for which the switch fluorescence ratio stood at 1.03.

Turning to TAGAGCGGCG, the switch fluorescence ratio was 0.929.

For the sequence GCAGCCAAAC, the switch fluorescence ratio was 3.07.

In the case of GTAACATAGG, the switch fluorescence ratio amounted to 0.983.

In the case of AGCGCAACGG, the switch fluorescence ratio stood at 1.04.

For the sequence CTACGAGCCG, the switch fluorescence ratio is 1.

On to TCCTTTAGGA, for which the switch fluorescence ratio worked out at 1.02.

For the sequence TCTTATCTAA, the switch fluorescence ratio was 0.964.

On to ATGCTATGCC, for which the switch fluorescence ratio was 1.4.

With ACACGCTGGG, the switch fluorescence ratio came to 1.01.

As for TGAAAGTGAT, the switch fluorescence ratio is 1.05.

Regarding CTAAGTATTT, the switch fluorescence ratio was found to be 1.03.

For ACCACGTTGA, the switch fluorescence ratio worked out at 0.983.

Take TCGCTTGGCG: the switch fluorescence ratio is 1.02.

On to ACACCCACCT, for which the switch fluorescence ratio is 1.5.

Regarding TCACGAAACA, the switch fluorescence ratio came out at 1.32.

Regarding CTAGTCGACG, the switch fluorescence ratio was determined as 0.995.

Regarding GGTCCCCACT, the switch fluorescence ratio came out at 1.01.

As to GTTATGCAGC, the switch fluorescence ratio came to 1.02.

With GAGCCGACGG, the switch fluorescence ratio was determined as 1.03.

Regarding TACTCGTTCG, the switch fluorescence ratio was determined as 1.09.

For the sequence GTATGTGCGT, the switch fluorescence ratio was determined as 0.957.

In the case of CGGCGCGT, the switch fluorescence ratio was determined as 0.991.

As for GCAGACCGGT, the switch fluorescence ratio came out at 1.04.
